Measurements taken from the supplement of paper PMC8674133.
Residue numbers refer to the chain shown, from its start. Recombinant human monoclonal antibodies (heavy:light variable regions). ELISA EC50 on the named antigen, from 10 µg/ml down; IC50 / IC90 against spike pseudovirus on 293T-ACE2 cells, 48 h; lower = stronger. Calls: IC50 above 1,000 ng/ml = non-neutralizing; EC50 above 2,000 ng/ml = non-binder. The source prints 1000 for neutralization that was not reached; it is given as >1000 ng/ml. A few antibodies were first reported in earlier work of the same group.

B1: C2047 (protein)
chain 1: EVQLVESGGGLVQPGRSLRLSCAASGFTFDDYGMHWVRQAPGKGLEWVSGISWNSGSIGYADSVKGRFTISRDNAKNSLYLQMNSLRAEDTALYYCAKERAGPQIKTYYYYGLDVWGQGTTVTVSS
chain 2: DIQLTQSPSSLSASVGDRVTITCRASQSISNYLNWYQQKPGKAPKLLIFAASSLQSGVPSRFSGSGSGTDFTLTISSLQPEDFATYYCQHTATFGQGTKLEIK
B2: C2048 (protein)
chain 1: QLQLQESGPGLVKPSETLSLTCTVSGGSISSSSYYWGWIRQPPGKGLEWIGSIYYTGSTYYNPSLKSRVTISVDTSKNQFSLKLSSVTAADTTIYYCARLVGGNGWYGRSLGDNRFDPWGQGTLVTVSS
chain 2: QSVLTQPPSVSGAPGQRVTISCTGSSSNIGAGYDVHWYQQLPGTAPKLLIYGNSNRPSGVPDRFSGSKSGTSASLAITGLQAEDEADYFCQSYDSSLSALQLVFGGGTKLTVL
B3: C2394 (protein)
chain 1: QVQLVQSGAEVKKPGSSVKISCKASGGIFSTYAFSWVRQAPGQGLEWMGGIIPIFGAADYAQKFQGRVTITADKLTTTAYMELSSLRSEDTAMYYCARDARGCFHDDVWGSFRDCYNGMAVWGQGTTVTVSS
chain 2: DIQLTQSPSSLSASVGDRVTITCRASQGINNSLAWYQQKPGKVPNLLIYAASTLQPGVPSRFSGSGSGTDFTLTISSLQPEDVATYYCQKGTFGPGTKVDIK
B4: C2396 (protein)
chain 1: EVQLVESGGGLIQPGGSLRLSCAASGFIVSTNYMIWVRQAPGKGLEWVSIIYSGGSTFYADSVMGRFTISRDNSKNTLYLQMNSLRADDTAVYYCARGYGDLYFDYWGQGALVTVSS
chain 2: DIQLTQSPSFLSASVGDRVTITCRASQGFGSYLAWYQQKPGKAPKLLIYSSSTSQSGVPSRFSGSGSGTEFTLTISSLQPEDSATYYCQHLTTFGQGTKVEIK
B5: C2476 (protein)
chain 1: EVQLVESGGGLVQPGGSLRLSCAASGFTFRTYDMHWVRQVAGKGLEWVSAIGTSGDTYYAASVKGRFTISRENAKNSLYLQMNSLRGDDTAVYYCARGADSSNLWYFDLWGRGTLVTVSS
chain 2: DIQLTQSPSSLSASVGDRVTITCRASQSIIRSLNWYQQKPGKAPKLLIYAASSLQSGVPSRFSGSGSGTDFTLTISSLQPEDFATYYCQQSYSMPTITFGQGTRLEIK
B6: C2477 (protein)
chain 1: QVQLVQSGAEVKKPGSSVKVSCKASGGTFSSYAINWVRQAPGQGLEWMGGIIPIFGPANYAQRFQGRVTITADESTSTAYMELSSLRSEDTAVYYCARDIEYSPLYGMDVWGQGTTVTVSS
chain 2: B5 chain 2 with I30S, S32Y, A50G, S93R, M94T, T96L, I97C, R104K
B7: C2398 (protein)
chain 1: QVQLQESGPGLVKPSQTLSLTCTVSGASISSGGDYWSWIRQHPGKGLEWIGYIHHSGSTYYNPSLKSRVTMSVDTSKNQFSLKLNSVTAADTAVYYCARVGDFDWFDTWGQGTLVTVSS
chain 2: EIVLTQSPATLSLSPGERATLSCRASQSVGSYLAWYQQKPGQAPRLLIYDASYRATGIPARFSGSGSGTDFTLTISSLESEDFAVYYCQQRFNWPPITFGQGTRLEIK
B8: C2400 (protein)
chain 1: QVQLVQSGAEVKKPGASVKVSCKTSGYTFTSYYIHWVRQAPGQGLEWMAMIDPSGGGRSNAQKFQGRVTMTKDTSTSTVYMELNSLKSEDTAVYYCARASWGSTLDYWGQGTLVTVSS
chain 2: DIQLTQSPSSLSASVGDRVTITCRASQSISSYLNWYQQKPGKAPNLLIYGASNLRSGVPSRFSGSGSGTDFTLTISSLQPEDFATYYCQQSYSTPPYTFGQGTKLEIK

Experiments:
[1] = target: SARS-CoV-2 Wuhan-Hu-1 spike pseudovirus; experiment: pseudovirus neutralization IC50; higher = weaker neutralization
Protocol: (§1)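 Single-round luciferase reporter pseudovirus mixed with antibody dilutions and put on 293T-ACE2 cells for 48 h; signal relative to no-antibody wells, four-parameter fit.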

[2] = target: SARS-CoV-2 Wuhan-Hu-1 spike pseudovirus; experiment: pseudovirus neutralization IC90; higher = weaker neutralization
Protocol: as §1

[3] = target: SARS-CoV-2 Wuhan-Hu-1 spike receptor-binding domain; experiment: ELISA binding EC50; higher = weaker binding; ELISA of recombinant human antibody on coated antigen, from 10 µg/ml in fourfold dilutions; four-parameter fit.

Binder | pseudovirus neutralization IC50 [1] [µg/mL] | pseudovirus neutralization IC90 [2] [µg/mL] | ELISA binding EC50 [3] [µg/mL]
B1 | 0.0139 | 0.0752 | 0.00118
B2 | 0.286 | > 1 | 0.00397
B3 | 0.00284 | 0.0181 | 0.00195
B4 | 0.0107 | 0.0657 | 0.00177
B5 | > 1 | > 1 | 0.00189
B6 | 0.268 | > 1 | 0.00164
B7 | > 1 | > 1 | 0.00182
B8 | 0.00425 | 0.108 | 0.00245
